Results from PubChem BioAssay AID463173 (ICCB-Longwood Screening Facility, Harvard Medical School, 2010).
Out of some 52,000 compounds screened, about 4,300 (8.3%) were called active. No stated cut-off is given here; in the data, active means survival mostly below about 52% (no sharp cut-off); inactive means mostly above about 56%. The list shows a part of the results.

Tested on: DeltatarO mutant
Test: S. aureus survival, RN4220 and DeltatarO strains – OD600, teichoic acid synthesis inhibitors, primary screen (AID 463173)
Details: S. aureus RN4220 wild type/DeltatarO growth, OD600, 18 h, hits give low values, screened at 18.75 µg/mL (by protocol)

SMILES	survival
Cc1cc(Nc2cccc(F)c2)n2nc(-c3ccco3)nc2n1	inactive: 89%
CCc1cccc(CC)c1NC(=O)Cc1csc(C)n1	active: 42%
O=C(Nc1ccccc1Cl)NC1(C(=O)NCc2cccnc2)CCCCC1	inactive: 81%
CCOc1ccc(C(=O)Nc2ccc3nc(SCC(=O)N(C)c4ccccc4)sc3c2)cc1	inactive: 71%
CCOC(=O)c1cc(-c2ccc(OC)cc2)n(CCC(=O)Nc2ccc(OC)cc2OC)c1C	inactive: 102%
CCOc1ccc(/C=C/c2nc3ccccc3n2S(=O)(=O)c2cccc(Cl)c2)cc1	inactive: 63%
COc1ccccc1CNC(=O)c1ccc(Nc2nc3ccccc3n3nnnc23)cc1	inactive: 49%
COC(=O)c1ccc2c(=O)n(CCCCCC(=O)NC(C)C)c(=O)[nH]c2c1	inactive: 77%
Cc1cc(C)cc(NC(=O)CCS(=O)(=O)c2ccc3c(c2)oc(=O)n3C)c1	inactive: 84%
Cc1ccc(Cl)cc1NC(=O)N1CCc2cc(S(=O)(=O)N3CCC(C)CC3)ccc21	inactive: 87%
CCc1ccc2[nH]c(=O)c(CNC3CCCC3)cc2c1	inactive: 86%
Cc1cccc(-n2ncc3c(N4CCN(CCO)CC4)ncnc32)c1	inactive: 83%
CCOC(=O)CCn1cnc2onc(-c3ccccc3Cl)c2c1=O	inactive: 129%
CCOc1ccccc1NC(=O)C1=C(C)Nc2ncnn2C1c1ccccn1 (stereo not drawn)	active: 25%
COc1ccc(C2=C(C)C(=O)N(Cc3ccc(C(=O)Nc4ccc(C)c(C)c4)cc3)S2(=O)=O)cc1	inactive: 87%
COc1cc(Cl)c(C)cc1NS(=O)(=O)c1c(C)nc2sccn2c1=O	active: 64%
COC(=O)c1ccc(Nc2ncnc3c2cnn3-c2ccccc2)cc1	inactive: 91%
COC(=O)CCCCC1SCC2NC(=O)NC21 (stereo not drawn)	inactive: 96%
Cc1cc(C)cc(NC(=O)CCCn2nc(C)c3c(C)n(-c4ccccc4)nc3c2=O)c1	inactive: 80%
CCOC(=O)C1(C)C=C(Nc2cccc(C)c2)C(=O)N1c1ccccc1 (stereo not drawn)	active: 15%

SMILES	survival
Cc1ccc(CNC(=O)c2nc(S(=O)(=O)Cc3ccc(C)cc3)ncc2Cl)cc1	active: 41%
COc1cc(-c2nnc(SCC(=O)Oc3ccc(C)cc3C)o2)cc(OC)c1OC	inactive: 70%
CC1CCN(S(=O)(=O)c2ccc3nc(Nc4cccc(C(F)(F)F)c4)ccc3c2)CC1	inactive: 80%
COc1cccc(-c2nc(SCC(=O)NC3CCCC3)c(-c3ccc(F)cc3)[nH]2)c1	inactive: 80%
CC(C)c1ccc(/C=C(\C#N)c2nc(-c3cc4ccccc4oc3=O)cs2)cc1	inactive: 66%
Cc1cc(C)cc(NC(=O)c2ncn(-c3ccccc3)n2)c1	inactive: 59%
Cc1c(Cl)cccc1NC(=O)C(C)N(c1ccccc1)S(C)(=O)=O (stereo not drawn)	inactive: 75%
CCc1ccc(NC(=O)N(Cc2cn(CC)c3ccccc23)C2CCCCC2)cc1	active: -13%
O=S(=O)(c1ccccc1)c1nc(-c2ccccc2)oc1N1CCN(c2cccc(Cl)c2)CC1	inactive: 86%
Cc1ccc(-c2cn3cccnc3n2)cc1NC(=O)Cc1ccccc1	inactive: 97%
CCc1ccc(NC(=O)COCc2cc(-c3ccc(F)cc3)on2)cc1	inactive: 81%
O=C(CSCc1cnn(-c2ccccc2)c1-n1cccc1)NCc1ccccc1Br	inactive: 102%
CCOCN(C(=O)Cn1c(CC(C)C)nc2ccccc21)c1c(C)cccc1CC	active: -12%
CCOc1ccccc1Nc1ncnc2c1c(-c1ccccc1)cn2-c1ccc(OC)cc1	inactive: 105%
CC(C)c1ccc(NC(=O)C(NS(=O)(=O)c2ccc3c(c2)CCC(=O)N3)c2ccccc2)cc1 (stereo not drawn)	inactive: 76%
Cn1c(=O)cc(OCC(=O)N2CCN(c3ccc(F)cc3)CC2)c2ccccc21	inactive: 66%
O=C1c2[nH]nc(-c3ccccc3O)c2C(c2ccc(Cl)cc2)N1CCc1ccccc1 (stereo not drawn)	active: 4%
COc1cc(OC)cc(-c2cc3nc(C)c(CCC(=O)Nc4ccc(F)c(Cl)c4)c(C)n3n2)c1	inactive: 56%
CCOc1ccc(OCC)c(NS(=O)(=O)c2ccc3[nH]c(=O)ccc3c2)c1	active: 8%
COc1cc2nc(SCC(=O)Nc3cccc(C)c3)n3nc(CCn4c(C)nc5ccccc54)nc3c2cc1OC	inactive: 70%

SMILES	survival
CC(NC(=O)C1=Cc2ccccc2OC1)c1ccccc1 (stereo not drawn)	inactive: 78%
CCCc1nc2ccccc2c(N)c1CC	inactive: 97%
COc1ccc(Cc2nc3ccc(C(=O)NCCc4ccccc4)cc3o2)cc1	inactive: 80%
CCc1ccccc1-n1c2c(cc(-c3nc(-c4ccc(Cl)cc4)cs3)c1=O)C(=O)CC(C)(C)C2	inactive: 77%
C=CCN(CC=C)C(=O)c1c(-c2ccccc2Cl)noc1C	inactive: 107%
COc1cccc(NC(=O)C2CCN(c3cc(C)nc4c(-c5ccc(Cl)cc5)c(C)nn34)CC2)c1	inactive: 129%
N#CCSc1nc(N)cc(N)n1	active: 52%
O=C(COc1ccc(F)cc1)NC1CC(=O)N(c2ccc3c(c2)OCCO3)C1 (stereo not drawn)	inactive: 78%
Cc1ccc(-c2nn3c(=O)cc(CN4CCN(S(=O)(=O)c5ccc(Cl)cc5)CC4)nc3s2)cc1	inactive: 78%
CCN(C(=O)Cn1nc(Cc2ccncc2)c2ccccc2c1=O)c1cccc(C(F)(F)F)c1	inactive: 70%
CC(C)Cn1c(=O)c2ccccc2n2c(CCC(=O)Nc3ccc(F)c(F)c3)nnc12	inactive: 93%
O=C(NCCc1ccccc1)c1ccc2c(c1)CCN2S(=O)(=O)c1ccccc1	active: 38%
Cc1ccc(S(=O)(=O)N2CCC(C(=O)Nc3ccc(Oc4ccccc4)cc3)CC2)cc1	inactive: 47%
CC(C)CSc1ccccc1NC(=O)c1sc2nc(-c3ccncc3)ccc2c1N	active: 46%
CCOC(=O)c1c(NC(=O)C(C)Oc2ccc(Cl)c(C)c2)sc2c1CCCC2 (stereo not drawn)	active: 42%
Cc1nn2c(=O)cc(COC(=O)c3ccc(NC(=O)c4cccs4)cc3)nc2s1	inactive: 125%
Cc1cc(C)cc(NC(=O)CN2C(=O)CCc3cc(S(=O)(=O)N4CCCCC4)ccc32)c1	inactive: 83%
O=C(Cn1cc(S(=O)(=O)Cc2ccccc2F)c2ccccc21)NCc1ccccc1Cl	inactive: 67%
